# Experimental data reported in PubChem BioAssay AID686978 (National Center for Advancing Translational Sciences (NCATS), 2013).
# Screen size: about 420,000 compounds; about 64,000 (15%) were called active. This list was built around the results that the source calls inconclusive (neither active nor inactive); the mix of calls is not that of the screen. The call rests on the fitted dose curve; in most records, active means well fitted inhibition curve with a large enough effect; inconclusive means small, poorly fitted or top-dose-only effect; inactive means flat fitted curve, though single readings scatter. No potency is given beside an inconclusive call; the fits are too rough.
# Experiment: qHTS for Inhibitors of human tyrosyl-DNA phosphodiesterase 1 (TDP1): qHTS in cells in absence of CPT; further: nearly all actives have a fitted effect of over 55% in size
# Settings: DT40 Tdp1-/- hTDP1 cells, no CPT, ATP luminescence, 48 h; activity change, negative = growth inhibition: at 46.2 µM (top of the series) unless noted
# Outline: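 Stably hTDP1-transfected Tdp1-null chicken DT40 cells were treated with library compounds minus camptothecin and grown for at least 48 hr at 37 °C, after which cellular ATP was quantified by luminescence.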
# On the % scale 0 is the no-effect control and ±100 the full control effect; potency means the concentration at half of the fitted maximal effect; tags describe the fitted curve by direction and shape.
SMILES,Potency,"activity change, negative = growth inhibition"
CCn1cc(C(=O)N2CCN(c3ccc(F)cc3)CC2)c(=O)c2cc(S(=O)(=O)N(C)C3CCCCC3)ccc21,"inconclusive [inhibitor, single point]",
Nc1nc(SCC(=O)NCCN2CCOCC2)nc2sc3c(c12)CCC3,,inactive: -0.71%
CCOC(=O)C1=C(CN2CCCCC2)NC(=O)NC1c1cc(C)ccc1C (centres undefined),"inconclusive [inhibitor, single point]",
C[C@@H](C(=O)Nc1ccc(OC(F)F)c(Cl)c1)N1C(=O)C2CC=CCC2C1=O (some centres undefined),,inactive: -26.8%
CCN(CC(=O)NCc1ccc(F)cc1)Cc1nc2cc(Cl)ccc2c(=O)[nH]1,"inconclusive [inhibitor, single point]",
O=C(CN1CCN(Cc2ccc(F)cc2Cl)C1=O)NCCc1ccccc1,"inconclusive [inhibitor, single point]",
O=C(/C=C/c1c(F)cccc1Cl)Nc1cccnc1,"inconclusive [inhibitor, single point]",
COc1ccccc1N1CCN(C(CNC(=O)C(=O)NCc2ccc(C)cc2)c2cccnc2)CC1 (centres undefined),active: 2.06 µM,
CC(C)(C)c1ccc(OCCn2cc(C(=O)c3ccco3)c3ccccc32)cc1,active: 23.1 µM,
COc1ccc(N(CC(=O)NN=C2CCN(C)CC2)S(=O)(=O)c2ccccc2)c(OC)c1,,inactive: -3.16%
CCc1cccc(NC(=O)C2CCCN(S(=O)(=O)c3cccs3)C2)c1 (centres undefined),active: 13 µM,
N#CC1=C(N)Oc2cc(N)ccc2C1c1cccnc1 (centres undefined),active: 16.4 µM,
COc1ccc(C2/C=C\CN(S(=O)(=O)c3ccc(C)cc3)CC(=O)N2Cc2cccc(F)c2)cc1 (centres undefined),"inconclusive [inhibitor, single point]",
COc1cc2c(cc1OC)C(=O)N1[C@H]3c4cc(Cl)ccc4OC[C@@H]3[C@H](c3ccccc3)[C@]1(C)C(=O)N2,active: 18.4 µM,
Cc1ccc(C2CC(c3ccc(C)cc3)n3nc(N)nc3N2)cc1 (centres undefined),"inconclusive [inhibitor, partial curve]",
N[C@@H](Cc1ccc(O)cc1)c1nnc([C@H](CO)NC(=O)C2CCNCC2)o1,,inactive: -5.05%
COc1ccc(CNCCCC(=O)Nc2c(Cl)ccc(C)c2Cl)cc1OC,"inconclusive [inhibitor, single point]",
NS(=O)(=O)c1ccc(NN=C2CCN(Cc3ccccc3)CC2)c([N+](=O)[O-])c1,,inactive: 8.91%
Cc1ccc(Cc2c(-c3ccccc3)nc3cc(C)c(Br)c(C)n23)cc1,"inconclusive [inhibitor, single point]",
